The record followed here is patent US20060217290A1 (published 2006).

The target of this experiment is T1, human IGF-1 receptor (human, UniProt P08069 31-1367).
T1 construct: whole, on cells; Assayed as membrane preparation (P1) of transfected 293EBNA cells, not as intact cells; also called IGF-R; insulin growth factor receptor
Description: competitive binding SPA, displacement of [125I]IGF-1 from human IGF-1R membranes.

T1 sequence (P08069 31-1367): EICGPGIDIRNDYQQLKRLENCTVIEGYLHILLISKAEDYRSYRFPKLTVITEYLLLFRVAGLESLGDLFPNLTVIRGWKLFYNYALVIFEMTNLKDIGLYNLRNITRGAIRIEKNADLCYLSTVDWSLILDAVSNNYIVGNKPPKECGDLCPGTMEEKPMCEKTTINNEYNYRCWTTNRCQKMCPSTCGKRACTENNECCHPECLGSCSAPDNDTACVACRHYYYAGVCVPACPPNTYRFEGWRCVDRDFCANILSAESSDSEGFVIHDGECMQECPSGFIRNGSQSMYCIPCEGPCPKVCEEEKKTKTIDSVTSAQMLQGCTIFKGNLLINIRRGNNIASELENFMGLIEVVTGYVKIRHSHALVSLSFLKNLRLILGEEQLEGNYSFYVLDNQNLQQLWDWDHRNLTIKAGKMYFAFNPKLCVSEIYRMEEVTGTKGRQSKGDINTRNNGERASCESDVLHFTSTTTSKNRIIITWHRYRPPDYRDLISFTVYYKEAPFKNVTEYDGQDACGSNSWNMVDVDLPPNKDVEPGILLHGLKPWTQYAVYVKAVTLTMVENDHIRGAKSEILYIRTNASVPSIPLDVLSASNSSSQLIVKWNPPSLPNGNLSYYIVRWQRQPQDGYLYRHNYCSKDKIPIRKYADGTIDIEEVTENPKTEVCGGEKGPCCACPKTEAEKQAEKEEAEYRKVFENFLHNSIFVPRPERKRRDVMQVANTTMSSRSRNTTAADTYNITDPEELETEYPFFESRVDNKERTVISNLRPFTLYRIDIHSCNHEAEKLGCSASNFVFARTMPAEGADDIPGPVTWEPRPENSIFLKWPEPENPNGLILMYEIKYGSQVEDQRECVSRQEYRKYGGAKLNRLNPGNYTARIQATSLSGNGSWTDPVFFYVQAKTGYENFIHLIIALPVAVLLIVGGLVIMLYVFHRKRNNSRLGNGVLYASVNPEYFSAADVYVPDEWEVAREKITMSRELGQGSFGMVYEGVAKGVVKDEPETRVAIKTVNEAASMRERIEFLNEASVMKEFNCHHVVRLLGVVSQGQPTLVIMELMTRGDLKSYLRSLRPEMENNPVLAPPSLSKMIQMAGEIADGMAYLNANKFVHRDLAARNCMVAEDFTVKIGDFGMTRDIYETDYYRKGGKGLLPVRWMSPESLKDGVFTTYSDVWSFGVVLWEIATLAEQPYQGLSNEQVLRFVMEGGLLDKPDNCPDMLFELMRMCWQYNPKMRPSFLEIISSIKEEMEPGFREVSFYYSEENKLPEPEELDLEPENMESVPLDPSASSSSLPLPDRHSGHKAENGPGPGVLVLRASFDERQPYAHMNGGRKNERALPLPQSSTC

B1: A0^ArgA21^GlyB31^ArgB32^Arg-human insulin (ligand)
chain 1: RGIVEQCCTSICSLYQLENYCG
chain 2: not shown
notes: Insulin analog; Disulfides A7-B7, A20-B19, A6-A11; also called ArgA0, GlyA21, ArgB31, ArgB32-human insulin
In the case of B1, the “Relative IGF1-R Affinity (Mean)” value was 1.2 relative to recombinant human insulin.
